Source: article PMC8287832
These are yes or no findings as the source states them, for the method shown. Binding seen in cells or lysates may run through a third protein. Some results given as binding are weak or reduced against the parent protein; the word gives no strength.

The chains behind the UniProt entries cited, without tags or fusion partners.
UniProt Q13148: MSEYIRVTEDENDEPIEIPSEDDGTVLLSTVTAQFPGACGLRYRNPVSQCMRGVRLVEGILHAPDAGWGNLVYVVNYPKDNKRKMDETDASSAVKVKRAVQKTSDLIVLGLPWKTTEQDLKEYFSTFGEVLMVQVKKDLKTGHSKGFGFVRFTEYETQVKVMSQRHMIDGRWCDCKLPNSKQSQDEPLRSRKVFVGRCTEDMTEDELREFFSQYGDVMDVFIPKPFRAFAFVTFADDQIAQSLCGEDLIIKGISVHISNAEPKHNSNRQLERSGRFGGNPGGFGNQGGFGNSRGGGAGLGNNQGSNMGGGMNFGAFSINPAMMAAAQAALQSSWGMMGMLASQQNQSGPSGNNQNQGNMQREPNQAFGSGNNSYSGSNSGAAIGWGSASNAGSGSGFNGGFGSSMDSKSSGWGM
UniProt P35222: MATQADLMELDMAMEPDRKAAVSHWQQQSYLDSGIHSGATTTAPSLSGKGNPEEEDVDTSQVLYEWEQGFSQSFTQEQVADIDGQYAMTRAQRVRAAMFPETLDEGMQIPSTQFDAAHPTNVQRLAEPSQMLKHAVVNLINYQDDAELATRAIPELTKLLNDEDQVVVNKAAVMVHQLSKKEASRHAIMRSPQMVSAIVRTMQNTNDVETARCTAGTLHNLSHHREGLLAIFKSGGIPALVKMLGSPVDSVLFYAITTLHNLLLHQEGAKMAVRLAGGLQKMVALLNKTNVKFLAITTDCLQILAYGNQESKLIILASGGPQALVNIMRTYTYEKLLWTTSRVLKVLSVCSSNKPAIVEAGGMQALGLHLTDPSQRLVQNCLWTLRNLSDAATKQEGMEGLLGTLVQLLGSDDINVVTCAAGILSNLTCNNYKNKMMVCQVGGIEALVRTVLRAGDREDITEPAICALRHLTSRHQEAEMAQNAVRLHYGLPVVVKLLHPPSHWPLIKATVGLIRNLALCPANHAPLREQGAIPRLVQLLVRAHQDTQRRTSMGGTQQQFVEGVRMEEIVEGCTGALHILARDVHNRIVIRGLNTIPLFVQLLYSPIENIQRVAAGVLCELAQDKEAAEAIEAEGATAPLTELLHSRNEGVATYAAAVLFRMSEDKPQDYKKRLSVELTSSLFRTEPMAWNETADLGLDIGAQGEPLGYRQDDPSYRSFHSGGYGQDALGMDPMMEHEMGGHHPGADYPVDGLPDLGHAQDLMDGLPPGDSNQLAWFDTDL
UniProt P37231: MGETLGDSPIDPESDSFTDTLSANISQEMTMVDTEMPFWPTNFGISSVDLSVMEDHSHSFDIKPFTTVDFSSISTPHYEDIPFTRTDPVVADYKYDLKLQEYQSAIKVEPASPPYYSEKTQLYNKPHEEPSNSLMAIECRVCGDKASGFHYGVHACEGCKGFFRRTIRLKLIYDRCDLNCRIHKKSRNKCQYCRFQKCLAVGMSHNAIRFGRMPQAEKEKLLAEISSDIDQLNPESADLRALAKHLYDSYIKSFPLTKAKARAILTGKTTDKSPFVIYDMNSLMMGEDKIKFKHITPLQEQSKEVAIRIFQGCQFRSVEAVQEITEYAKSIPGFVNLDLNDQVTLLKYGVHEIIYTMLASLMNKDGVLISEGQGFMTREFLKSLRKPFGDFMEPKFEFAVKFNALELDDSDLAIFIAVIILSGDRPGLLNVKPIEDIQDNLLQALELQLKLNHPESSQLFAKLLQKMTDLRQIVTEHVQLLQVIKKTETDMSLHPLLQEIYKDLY

How the values were obtained:
[1] = biological target: Transactive response DNA-binding protein ~43 kDa (TDP43), endogenous (human (endogenous in THP-1)) (UniProt Q13148); assay: co-IP; lysates of macrophages treated with or without oxLDL (40 or 60 μg/mL) for 24 h; endogenous TDP43 precipitated with TDP43 antibody and protein A/G agarose at 4°C, western blot
[2] = biological target: FLAG-tagged TDP43 (Transactive response DNA-binding protein ~43 kDa) (UniProt Q13148); assay: co-IP; lysates of macrophages infected with lenti-control or lenti-TDP43 (with or without 40 μg/mL oxLDL for 24 h in Figure 3D); precipitated with FLAG antibody and protein A/G agarose at 4°C, western blot
[3] = biological target: β-catenin (human (endogenous in THP-1)) (UniProt P35222); assay: co-IP; lysates of macrophages infected with lenti-control or lenti-TDP43 for 48 h; endogenous β-catenin and PPAR-γ; the methods list an anti-β-catenin antibody for precipitation; protein A/G agarose at 4°C, western blot

“peroxisome proliferator-activated receptor gamma (PPAR-γ) (from UniProt P37231 1-505)” was tested. Which binding [1] did it give?
Its binding is “no binding”.

And the binding [2]?
Its binding is “no binding”.

And the binding [3]?
Its binding is “binds”.

For β-catenin (from UniProt P35222 1-781), which binding [1] is on record?
Its binding is “binds”.

What about the binding [2] of the same substance?
Its binding is “binds”.
